In PubChem BioAssay AID1460 (National Center for Advancing Translational Sciences (NCATS), 2008):
The campaign covered roughly 270,000 compounds. About 5,800 (2.1%) were called active. The shares of active, inactive and inconclusive entries below differ from those in the screen. The call rests on the fitted dose curve; in most records, active means well fitted inhibition curve with a large enough effect; inconclusive means small, poorly fitted or top-dose-only effect; inactive means flat fitted curve, though single readings scatter. A potency beside an inconclusive call is a rough fit, not a confirmed value.

What follows are compounds tested against Microtubule-associated protein tau (Homo sapiens) (UniProt P10636) (assay: qHTS for Inhibitors of Tau Fibril Formation, Thioflavin T Binding). Settings: recombinant tau K18 P301L (four-repeat tau fragment), heparin-induced fibrillization, ThT fluorescence; series mostly up to 57.4 µM.
UniProt P10636, sequence (P10636 whole entry, looked up, the tested form may be a part): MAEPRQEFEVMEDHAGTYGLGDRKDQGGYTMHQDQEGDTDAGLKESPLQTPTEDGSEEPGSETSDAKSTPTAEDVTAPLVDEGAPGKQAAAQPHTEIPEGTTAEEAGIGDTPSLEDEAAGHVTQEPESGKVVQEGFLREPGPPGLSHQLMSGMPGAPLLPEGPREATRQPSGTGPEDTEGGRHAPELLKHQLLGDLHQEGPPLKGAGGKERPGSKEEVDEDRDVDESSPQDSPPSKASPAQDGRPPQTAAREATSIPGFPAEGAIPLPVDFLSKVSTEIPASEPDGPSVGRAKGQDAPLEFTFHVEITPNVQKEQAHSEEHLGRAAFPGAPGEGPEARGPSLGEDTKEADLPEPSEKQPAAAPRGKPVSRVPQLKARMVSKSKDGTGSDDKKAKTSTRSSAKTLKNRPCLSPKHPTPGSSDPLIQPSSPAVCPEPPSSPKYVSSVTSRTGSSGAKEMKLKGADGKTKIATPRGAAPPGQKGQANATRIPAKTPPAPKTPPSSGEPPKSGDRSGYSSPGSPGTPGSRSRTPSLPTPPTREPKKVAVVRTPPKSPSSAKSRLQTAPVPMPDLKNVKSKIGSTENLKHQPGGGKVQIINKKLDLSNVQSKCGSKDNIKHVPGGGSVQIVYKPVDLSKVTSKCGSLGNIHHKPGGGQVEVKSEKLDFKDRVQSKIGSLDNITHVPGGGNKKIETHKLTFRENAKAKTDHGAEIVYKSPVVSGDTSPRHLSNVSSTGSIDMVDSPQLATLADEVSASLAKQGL
Method in brief: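 Aggregation was driven by heparin (20 uM final) acting on recombinant tau […] bearing P301L in 100 mM sodium acetate pH 7; fibrils were detected with Thioflavin T.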
Further: nearly all actives have a fitted effect of over 55% in size.
Potency means the concentration at half of the fitted maximal effect; tags describe the fitted curve by direction and shape.

| Structure (SMILES) | Potency |
| --- | --- |
| Cc1cc(-c2cccc([N+](=O)[O-])c2)nc2ccccc12 | inconclusive: 28.2 µM [inhibitor, partial curve] |
| CC1CCc2nc3ncn(CC(=O)Nc4cccc(C#N)c4)c(=O)c3cc2C1 (stereo not given) | inactive |
| COc1cccc(NC(=O)c2cn(C3CCCCC3)c(=O)c3c2c2ccccc2n3C)c1 | inactive |
| COc1ccc(C(CCN)Cc2ccccc2)cc1 (stereo not given) | inactive |
| O=C(c1ccc(Cl)c([N+](=O)[O-])c1)N(Cc1cccc(Cl)c1)C1CCS(=O)(=O)C1 (stereo not given) | inactive |
| C=CCOc1ccc(/C=C2\SC(=S)N(N3CCOCC3)C2=O)cc1 | inconclusive: 2.24 µM [inhibitor, partial curve] |
| CCOC(=O)N1CCN(C(=O)c2ccccc2NC(C)=O)CC1 | inconclusive: 5.62 µM [inhibitor, partial curve] |
| Cc1cc(C)c(/C=C/c2onc(C)c2S(=O)(=O)N2CCC(C(=O)N3CCN(c4ccccc4)CC3)CC2)c(C)c1 | inactive |
| COC(=O)c1ccc(Cn2c(SCc3cccc(C)c3)nc3ccncc32)cc1 | inconclusive: 10 µM [inhibitor, partial curve] |
| Cc1oc(-c2ccccc2)nc1CNC(=O)Nc1ccccc1 | inactive |
| CCCn1c(-c2ccc(F)cc2)nc2c(NCCCN3CCCCC3C)nc(C)nc21 (stereo not given) | inactive |
| CCn1nc(-c2ccccc2)c(-c2ccccc2)c(C(=O)OCCOC)c1=O | inactive |
| c1ccc(Nc2ccc(-n3ccnc3)nn2)cc1 | inconclusive: 39.8 µM [inhibitor, single point] |
| Cc1ccc(NC(=S)NNc2ncc(C(F)(F)F)cc2Cl)c(C)c1 | inactive |
| Cc1ccc(NCc2nnc3n2CCCCC3)cc1Cl | inactive |
| COC(=O)/C=C1\S/C(=N/NC(=O)c2ccc(OC)cc2)NC1=O | inactive |
| O=C(/C=C/c1cccc([N+](=O)[O-])c1)NCCSCc1cccc(Cl)c1 | inconclusive: 15.8 µM [inhibitor, partial curve] |
| CCOc1ccccc1NC(=O)C(C)Sc1nc2c(c(=O)[nH]1)CCCC2 (stereo not given) | inactive |
| CCOC(=O)C1(CC2CCCCO2)CCN(Cc2cc3ccccc3[nH]2)CC1 (stereo not given) | inconclusive: 1.12 µM [inhibitor, partial curve] |
| Cc1ccc(C(=O)CN2CCC(NC(=O)C3CCCCC3)CC2)cc1 | inactive |
| CCCCC1=CC2=C(c3ccco3)C(=O)C(C)(OC(=O)c3ccc(OC)cc3)C(=O)C2=CN1CCOC (stereo not given) | inconclusive: 6.31 µM [inhibitor, partial curve] |
| Cc1c(C(=O)c2ccc(N(C)C)cc2)c2ccccn2c1CCC#N | inactive |
| Cc1cc(F)ccc1NC(=O)c1sc2nc(-c3cccs3)ccc2c1N | inconclusive: 0.501 µM [inhibitor, full curve] |
| C=CCn1c(SCC(=O)NCc2ccco2)nc2sc3c(c2c1=O)CCCC3 | inactive |
| C/C(=N/NC(=O)c1ccc(C)s1)c1cccc(NC(=O)COc2ccc(Cl)cc2Cl)c1 | inconclusive: 0.562 µM [inhibitor, full curve] |

| Structure (SMILES) | Potency |
| --- | --- |
| Cc1ccccc1CSCCNC(=S)Nc1ccccc1 | inactive |
| Cc1cccc(Oc2c([N+](=O)[O-])c(=O)n(C)c3ccccc23)c1 | active: 14.1 µM |
| COc1ccc(OCc2nnc(-c3ccccc3)o2)cc1 | inconclusive: 44.7 µM [inhibitor, single point] |
| CC(=O)Nc1sc(N/N=C\c2ccco2)nc1-c1cccs1 | active: 15.8 µM |
| Cn1c(=O)[nH]c(=O)c2c1nc(N1CCCCC1)n2CCCSc1nnnn1-c1ccccc1 | inactive |
| Cc1ccc(CN(C(=O)COc2ccc(C)c(C)c2)C2CCS(=O)(=O)C2)o1 (stereo not given) | inactive |
| CCCCOc1ccc(C(=S)N2CCC(C(N)=O)CC2)cc1 | inactive |
| Cc1c(CCOC(=O)c2cc([N+](=O)[O-])cc([N+](=O)[O-])c2)sc[n+]1CC(=O)c1ccccc1 | inconclusive: 10 µM [inhibitor, partial curve] |
| CN1CCc2cccc3c2C1Cc1ccc(O)c(O)c1-3 (stereo not given) | active: 17.8 µM |
| N#C/C(=C/c1ccc(N2CCOCC2)o1)C(=O)Nc1ccccc1 | inconclusive: 12.6 µM [inhibitor, partial curve] |
| O=C(NCCn1cc(SCc2ccc(F)cc2)c2ccccc21)c1ccccc1F | inconclusive: 20 µM [inhibitor, partial curve] |
| C/C(=N\NC(=S)NC1CCCCC1)c1ccc(O)cc1 | inactive |
| CCn1nc(NC(=O)c2ccco2)c2cc3ccccc3nc21 | inconclusive: 15.8 µM [inhibitor, partial curve, poor fit] |
| CCOc1cccc(C(=O)NC(=S)Nc2ccc(N3CCN(CC)CC3)cc2)c1 | inconclusive: 22.4 µM [inhibitor, partial curve] |
| O=c1[nH]c(-c2ccccn2)nc2sc(-c3ccccc3)cc12 | inconclusive: 0.562 µM [inhibitor, full curve] |
| COc1cc(N)ccc1NC(=O)c1cccs1 | inconclusive: 39.8 µM [inhibitor, single point] |
| COc1ccc(NC(=O)c2cn(-c3ccccc3)nc2SC)cc1 | inconclusive: 14.1 µM [inhibitor, partial curve] |
| CCN(CC)CCNC(=O)c1ccc2c(c1NCCO)C(=O)c1ccccc1C2=O | active: 15.8 µM |
| CCCS(=O)(=O)c1ncc(Cl)c(C(=O)Nc2c(C(=O)Nc3ccccc3)oc3ccccc23)n1 | active: 7.08 µM |
| CCCC(=O)Nn1cnc2c(c1=O)C1(CCCCC1)Cc1ccccc1-2 | inactive |
| O=C(NCCc1csc(-c2cccnc2)n1)c1ccc(Br)o1 | inactive |
| Cc1ccc(NC(=S)NC(=O)c2ccc(-c3ccccc3)cc2)c(C)c1 | inconclusive: 14.1 µM [inhibitor, partial curve] |
| CCC(C)(C)C1CCC(=NNS(=O)(=O)c2ccc(C)c([N+](=O)[O-])c2)CC1 (stereo not given) | inconclusive: 1 µM [inhibitor, full curve, poor fit] |
| COc1cccc(C2C3=C(CC(C)(C)CC3=O)Nc3n[nH]c(C)c32)c1 (stereo not given) | inconclusive: 17.8 µM [inhibitor, partial curve] |
| CN(CC(=O)Nc1nc2ccccc2s1)S(=O)(=O)c1ccc(Cl)cc1 | inconclusive: 10 µM [inhibitor, partial curve] |
